Results published in PMC11532494 (Nature Communications, 2024).
Several values for one entry are separate records, joined by “and”; a condition that tells them apart may be missing. Equal entries are not always repeated. Where two headings read alike, the source gives them in different places.

How the values were obtained:
[1] = biological target: T1, PsApaH (4) (Pseudomonas sp. M30-35, UniProt A0A1Y0KY79); test: Inhibitor screening assay (10 µM or 1 µM); details: for % residual activity / % residual activity, mean: PsApaH (4); for % residual activity: individual replicates
[2] = biological target: T2, BsAcuC (2c) (Bacillus subtilis, UniProt P39067); test: Inhibitor screening assay (10 µM or 1 µM); type: biochemical
T2 construct: made in house; host or cells: E. coli BL21 (DE3)
T2 sequence (P39067 1-387): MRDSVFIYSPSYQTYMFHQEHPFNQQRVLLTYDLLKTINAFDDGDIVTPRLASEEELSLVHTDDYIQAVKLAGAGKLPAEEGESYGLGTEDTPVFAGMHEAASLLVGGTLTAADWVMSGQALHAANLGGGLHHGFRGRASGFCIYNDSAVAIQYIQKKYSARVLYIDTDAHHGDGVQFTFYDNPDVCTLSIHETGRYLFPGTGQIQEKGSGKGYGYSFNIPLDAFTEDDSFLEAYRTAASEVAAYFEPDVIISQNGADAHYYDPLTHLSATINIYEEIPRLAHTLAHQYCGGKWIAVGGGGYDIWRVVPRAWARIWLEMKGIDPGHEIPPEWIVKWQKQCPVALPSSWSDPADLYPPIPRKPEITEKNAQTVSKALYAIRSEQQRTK
Description: Data was transformed to relative enzyme activity (%) compared to control wells without inhibitors.

[3] = biological target: T3, RwDmhA (1b) (Rhizorhabdus wittichii, UniProt A0A067XIQ6); type: biochemical; details: for % residual activity: individual replicates
[4] = biological target: KpHdaH (1b) (Klebsiella pneumoniae, UniProt A0A377Z5F6); type: biochemical; details: for % residual activity: individual replicates
[5] = tested on: VsHdaH (1b); type: biochemical, Vibrio sp.; details: for % residual activity: individual replicates
[6] = biological target: LcApaH (3) (Legionella cherrii, UniProt A0A0W0SGS1); test: biochemical
[7] = biological target: T3, RwDmhA (1b); type: biochemical; details: for % residual activity, means: mean; for % residual activity: single measurement
[8] = tested on: VsHdaH (1b); type: biochemical, Vibrio sp.; details: for % residual activity, means: mean; for % residual activity: single measurement
[9] = biological target: T1, PsApaH (4); test: Dose-response inhibition assay; details: for % residual activity, means: mean; for % residual activity: single measurement
[10] = 1 µM inhibitor, single measurements (two columns), 40 µM LGKac, 60 min, 37 °C
[11] = 10 µM inhibitor, single measurements (two columns), 40 µM LGKac, 60 min, 37 °C
[12] = BsAcuC (2c), inhibitor 1 µM, individual replicates, 1 µM
[13] = BsAcuC (2c), inhibitor 10 µM, individual replicates, 10 µM

T1 sequence (A0A1Y0KY79 1-342 limits assumed): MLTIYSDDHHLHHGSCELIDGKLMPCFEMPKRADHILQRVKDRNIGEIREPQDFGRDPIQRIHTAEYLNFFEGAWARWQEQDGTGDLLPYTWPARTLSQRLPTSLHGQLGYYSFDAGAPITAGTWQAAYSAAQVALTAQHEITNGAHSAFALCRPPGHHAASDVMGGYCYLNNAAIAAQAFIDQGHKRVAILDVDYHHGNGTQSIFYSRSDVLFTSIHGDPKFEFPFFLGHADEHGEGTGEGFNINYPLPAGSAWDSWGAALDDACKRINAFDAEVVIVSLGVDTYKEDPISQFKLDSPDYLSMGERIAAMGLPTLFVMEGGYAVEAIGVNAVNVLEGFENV
LcApaH (3), sequence (A0A0W0SGS1 1-425): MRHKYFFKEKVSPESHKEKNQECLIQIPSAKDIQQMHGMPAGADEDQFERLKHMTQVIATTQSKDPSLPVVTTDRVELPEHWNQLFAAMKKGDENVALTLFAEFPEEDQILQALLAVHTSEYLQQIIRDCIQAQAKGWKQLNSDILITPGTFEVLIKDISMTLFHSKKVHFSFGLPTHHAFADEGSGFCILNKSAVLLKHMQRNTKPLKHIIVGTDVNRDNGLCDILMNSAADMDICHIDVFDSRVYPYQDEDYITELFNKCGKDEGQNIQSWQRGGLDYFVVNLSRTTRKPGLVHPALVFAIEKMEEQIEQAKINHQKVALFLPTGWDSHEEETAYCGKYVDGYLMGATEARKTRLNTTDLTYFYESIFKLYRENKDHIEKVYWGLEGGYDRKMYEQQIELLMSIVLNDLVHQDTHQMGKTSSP
T3 sequence (A0A067XIQ6 1-369): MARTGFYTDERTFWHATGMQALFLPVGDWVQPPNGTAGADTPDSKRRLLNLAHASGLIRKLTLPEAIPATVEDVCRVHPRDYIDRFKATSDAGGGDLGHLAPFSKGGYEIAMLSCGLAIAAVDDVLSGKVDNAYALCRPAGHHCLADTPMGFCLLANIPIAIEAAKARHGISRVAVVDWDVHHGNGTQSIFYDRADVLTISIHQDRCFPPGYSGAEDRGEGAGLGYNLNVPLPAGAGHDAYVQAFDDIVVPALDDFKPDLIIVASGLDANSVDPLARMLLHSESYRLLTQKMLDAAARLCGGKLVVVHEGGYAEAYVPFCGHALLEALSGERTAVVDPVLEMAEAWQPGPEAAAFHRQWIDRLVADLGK
KpHdaH (1b), sequence (A0A377Z5F6 1-371): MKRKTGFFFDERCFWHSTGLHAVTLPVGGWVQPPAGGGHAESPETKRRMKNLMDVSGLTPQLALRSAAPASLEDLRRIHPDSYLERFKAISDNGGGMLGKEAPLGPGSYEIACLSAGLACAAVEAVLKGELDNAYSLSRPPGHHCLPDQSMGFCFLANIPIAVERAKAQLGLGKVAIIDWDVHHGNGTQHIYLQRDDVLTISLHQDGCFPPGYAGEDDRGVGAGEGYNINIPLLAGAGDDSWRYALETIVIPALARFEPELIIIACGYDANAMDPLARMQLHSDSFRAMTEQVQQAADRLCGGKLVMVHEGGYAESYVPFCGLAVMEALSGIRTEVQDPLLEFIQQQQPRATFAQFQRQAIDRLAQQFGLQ

Nc1ccccc1NC(=O)c1ccc(CNC(=O)OCc2cccnc2)cc1 [Entinostat, entinostat]
% residual activity ([1]; inhibitor 1 µM, 1 µM): 101% | % residual activity ([1]; inhibitor 10 µM, 10 µM): 107% | remaining activity at 1 µM ([1]; read-out: % residual activity, PsApaH (4), inhibitor 1 µM, individual replicates): 94.5% | remaining activity at 10 µM ([1]; read-out: % residual activity, PsApaH (4), inhibitor 10 µM, individual replicates): 112% | remaining activity at 1 µM ([1]; read-out: % residual activity, mean, PsApaH (4), inhibitor 1 µM, mean): 97.8% | remaining activity at 10 µM ([1]; read-out: % residual activity, mean, PsApaH (4), inhibitor 10 µM, mean): 110% | % residual activity [2, 10]: 97.9% and 101.5% | % residual activity [2, 11]: 84.8% and 93.1% | % residual activity [2, 12]: 97.9% and 101.5% | % residual activity, mean ([2]; BsAcuC (2c), inhibitor 1 µM): 99.7% | % residual activity [2, 13]: 84.8% and 93.1% | % residual activity, mean ([2]; BsAcuC (2c), inhibitor 10 µM): 88.95% | % residual activity ([3]; inhibitor 1 µM, 1 µM): 99% and 99.4% | % residual activity, mean ([3]; inhibitor 1 µM): 99.2% | % residual activity ([3]; inhibitor 10 µM, 10 µM): 106.6% and 100.4% | % residual activity, mean ([3]; inhibitor 10 µM): 103.5% | % residual activity ([4]; inhibitor 1 µM, 1 µM): 98.2% and 100.3% | % residual activity, mean ([4]; inhibitor 1 µM): 99.25% | % residual activity ([4]; inhibitor 10 µM, 10 µM): 107.9% and 99.1% | % residual activity, mean ([4]; inhibitor 10 µM): 103.5% | % residual activity ([5]; inhibitor 1 µM, 1 µM): 104% and 99.6% | % residual activity, mean ([5]; inhibitor 1 µM): 101.8% | % residual activity ([5]; inhibitor 10 µM, 10 µM): 103.5% and 100.2% | % residual activity, mean ([5]; inhibitor 10 µM): 101.85% | % residual activity [6, 10]: 102% and 104.4% | % residual activity [6, 11]: 102.7% and 104.2% | % residual activity ([6]; LcApaH (3), inhibitor 1 µM, individual replicates, 1 µM): 102% and 104.4% | % residual activity, mean ([6]; LcApaH (3), inhibitor 1 µM): 103.2% | % residual activity ([6]; LcApaH (3), inhibitor 10 µM, individual replicates, 10 µM): 102.7% and 104.2% | % residual activity, mean ([6]; LcApaH (3), inhibitor 10 µM): 103.45%

O=C(CCCCCCC(=O)Nc1ccccc1)NO [SAHA, suberoylanilide hydroxamic acid]
% residual activity [2, 10]: 86.2% | % residual activity [2, 11]: 65% | % residual activity [2, 12]: 86.2% | % residual activity [2, 13]: 65% | % residual activity ([3]; inhibitor 1 µM, 1 µM): 10.6% and 10.9% | % residual activity, mean ([3]; inhibitor 1 µM): 10.75% | % residual activity ([3]; inhibitor 10 µM, 10 µM): 1.3% and 1.4% | % residual activity, mean ([3]; inhibitor 10 µM): 1.35% | % residual activity, means ([7]; [inhibitor] 1.52e-9 M): 99.95% | % residual activity ([7]; [inhibitor] 1.52e-9 M): 98.6% and 101.3% | % residual activity, means ([7]; [inhibitor] 4.57e-9 M): 94.6% | % residual activity ([7]; [inhibitor] 4.57e-9 M): 92.9% and 96.3% | % residual activity, means ([7]; [inhibitor] 1.37e-8 M): 87.05% | % residual activity ([7]; [inhibitor] 1.37e-8 M): 86.1% and 88% | % residual activity, means ([7]; [inhibitor] 4.12e-8 M): 71.15% | % residual activity ([7]; [inhibitor] 4.12e-8 M): 71.3% and 71% | % residual activity, means ([7]; [inhibitor] 1.23e-7 M): 46.65% | % residual activity ([7]; [inhibitor] 1.23e-7 M): 45.7% and 47.6% | % residual activity, means ([7]; [inhibitor] 3.7e-7 M): 22.75% | % residual activity ([7]; [inhibitor] 3.7e-7 M): 22.2% and 23.3% | % residual activity, means ([7]; [inhibitor] 1.11e-6 M): 9.65% | % residual activity ([7]; [inhibitor] 1.11e-6 M): 9.2% and 10.1% | % residual activity, means ([7]; [inhibitor] 3.33e-6 M): 4.4% | % residual activity ([7]; [inhibitor] 3.33e-6 M): 3.8% and 5% | % residual activity, means ([7]; [inhibitor] 1e-5 M): 2.15% | % residual activity ([7]; [inhibitor] 1e-5 M): 2.1% and 2.2% | % residual activity, means ([7]; [inhibitor] 3e-5 M): 1.4% | % residual activity ([7]; [inhibitor] 3e-5 M): 1.8% and 1% | % residual activity ([5]; inhibitor 1 µM): 3.2% | % residual activity ([5]; inhibitor 1 µM, 1 µM): 2.1% | % residual activity, mean ([5]; inhibitor 1 µM): 2.65% | % residual activity ([5]; inhibitor 10 µM, 10 µM): 0.3% and 0.4% | % residual activity, mean ([5]; inhibitor 10 µM): 0.35% | % residual activity, means ([8]; [inhibitor] 1.52e-9 M): 85.1% | % residual activity ([8]; [inhibitor] 1.52e-9 M): 80% and 90.2% | % residual activity, means ([8]; [inhibitor] 4.57e-9 M): 75.2% | % residual activity ([8]; [inhibitor] 4.57e-9 M): 74.7% and 75.7% | % residual activity, means ([8]; [inhibitor] 1.37e-8 M): 55.1% | % residual activity ([8]; [inhibitor] 1.37e-8 M): 55.4% and 54.8% | % residual activity, means ([8]; [inhibitor] 4.12e-8 M): 30.1% | % residual activity ([8]; [inhibitor] 4.12e-8 M): 30.3% and 29.9% | % residual activity, means ([8]; [inhibitor] 1.23e-7 M): 14.05% | % residual activity ([8]; [inhibitor] 1.23e-7 M): 14.8% and 13.3% | % residual activity, means ([8]; [inhibitor] 3.7e-7 M): 5.45% | % residual activity ([8]; [inhibitor] 3.7e-7 M): 5.6% and 5.3% | % residual activity, means ([8]; [inhibitor] 1.11e-6 M): 2.1% | % residual activity ([8]; [inhibitor] 1.11e-6 M): 1.8% and 2.4% | % residual activity, means ([8]; [inhibitor] 3.33e-6 M): 1.25% | % residual activity ([8]; [inhibitor] 3.33e-6 M): 0.9% and 1.6% | % residual activity, means ([8]; [inhibitor] 1e-5 M): 0.95% | % residual activity ([8]; [inhibitor] 1e-5 M): 1.2% and 0.7% | % residual activity, means ([8]; [inhibitor] 3e-5 M): 0.75% | % residual activity ([8]; [inhibitor] 3e-5 M): 0.5% and 1%

CC(/C=C/C(=O)NO)=C\[C@@H](C)C(=O)c1ccc(N(C)C)cc1 [TSA, trichostatin A]
% residual activity ([1]; inhibitor 1 µM): 2.7% | % residual activity, mean ([1]; inhibitor 1 µM): 2.7% | % residual activity ([1]; inhibitor 10 µM, 10 µM): -0.6% and -0.3% | % residual activity, mean ([1]; inhibitor 10 µM): -0.45% | % residual activity, means ([9]; [inhibitor] 1.52e-9 M): 95.45% | % residual activity ([9]; [inhibitor] 1.52e-9 M): 94.9% and 96% | % residual activity, means ([9]; [inhibitor] 4.57e-9 M): 83.2% | % residual activity ([9]; [inhibitor] 4.57e-9 M): 81.8% and 84.6% | % residual activity, means ([9]; [inhibitor] 1.37e-8 M): 59.35% | % residual activity ([9]; [inhibitor] 1.37e-8 M): 56.9% and 61.8% | % residual activity, means ([9]; [inhibitor] 4.12e-8 M): 32.65% | % residual activity ([9]; [inhibitor] 4.12e-8 M): 30.6% and 34.7% | % residual activity, means ([9]; [inhibitor] 1.23e-7 M): 15.2% | % residual activity ([9]; [inhibitor] 1.23e-7 M): 14.4% and 16% | % residual activity, means ([9]; [inhibitor] 3.7e-7 M): 6.2% | % residual activity ([9]; [inhibitor] 3.7e-7 M): 5.6% and 6.8% | % residual activity, means ([9]; [inhibitor] 1.11e-6 M): 2.35% | % residual activity ([9]; [inhibitor] 1.11e-6 M): 2.1% and 2.6% | % residual activity, means ([9]; [inhibitor] 3.33e-6 M): 0.95% | % residual activity ([9]; [inhibitor] 3.33e-6 M): 0.6% and 1.3% | % residual activity, means ([9]; [inhibitor] 1e-5 M): -0.25% | % residual activity ([9]; [inhibitor] 1e-5 M): -0.1% | % residual activity, means ([9]; [inhibitor] 3e-5 M): -1.6% | % residual activity ([9]; [inhibitor] 3e-5 M): -1.8% and -1.4% | remaining activity at 1 µM ([6]; read-out: % residual activity, 1 µM inhibitor, single measurements (two columns), 40 µM LGKac, 60 min, 37 °C): 1.1% | remaining activity at 10 µM ([6]; read-out: % residual activity, 10 µM inhibitor, single measurements (two columns), 40 µM LGKac, 60 min, 37 °C): -0.6% | remaining activity at 1 µM ([6]; read-out: % residual activity, LcApaH (3), inhibitor 1 µM, individual replicates): 1.1% | remaining activity at 10 µM ([6]; read-out: % residual activity, LcApaH (3), inhibitor 10 µM, individual replicates): -0.6% | remaining activity at 10 µM ([6]; read-out: % residual activity, mean, LcApaH (3), inhibitor 10 µM, mean): -0.6%
